± gives the standard deviation. In all, about 6,600 sequences were measured (“pre-steady-state target cleavage rate”: median about 0.07, highest 2% from about 0.72 on). This is a selection; strong and weak results do not stand in their true shares.

This experiment relates to MIWI (PIWIL1) piRISC loaded with Kctd7 piRNA (30 nt). Put plainly: pre-steady-state target cleavage rate (min^-1); MIWI and MILI are mouse PIWI proteins and EfPiwi is from a freshwater sponge; tags in brackets are library labels; higher = faster piRNA-guided slicing of the target. The conditions noted are these: guide: Kctd7 piRNA 5'p-UGUUAAUCUCUCAGAGAAGGUGACAGUGAU; auxiliary factor: 500 nM mouse GTSF1. A digest of the protocol:
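Sequencing of uncleaved targets, normalised to depth and to weakly complementary targets, was the readout of this Cleave-'n-Seq assay. A transcribed, DNA-blocked target RNA library (0.1 nM) was mixed with 1 nM active affinity-purified piRISC carrying one synthetic guide, with or without 500 nM GTSF1 partner protein, in HEPES–potassium acetate buffer at 33 °C for 0–8 or 0–960 min. Three trials were pooled, k3 was capped at 0.0001 min^-1, and a burst-and-steady-state fit gave the pre-steady-state cleavage rate.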
For UAGUGUGUCACCUUGUCUGAGAGAUUAUCA, the “pre-steady-state target cleavage rate” value worked out at 0.0628 ± 0.014.
Turning to UAGUGACAGACCUUCUCAGAGAGUUUAACA, the “pre-steady-state target cleavage rate” value turned out to be 0.00682 ± 0.004.
With UAGUCUCAGACCUUCUCUGAGAGAUUAACA the figure was 0.257 ± 0.021.
With UACACUGUCACCUUCUCUGAGAGAUUAAUA the figure was 0.391 ± 0.051; with AUCAGAGUCACCUUCUCUGAGAGAUUAACA, 0.643 ± 0.037.
With UACAGUGUCACGUUCUCUGAGAGAUUAACA the figure was 0.623 ± 0.025.
Take UACACUCUCUCCUUCUCUGAGAGAUUAACA: the “pre-steady-state target cleavage rate” value was 0.349 ± 0.022.
Under UAGUCUGUCACCUUCUCUGAGAGAUUAAGA stands 0.122 ± 0.021.
Under UAGUGAGUCACCUUCUCUGAGUAGAUUAACA stands 0.00588 ± 0.0042; under UAGUGUGACACCUUGUCUGAGAGAUUAACA, 0.113 ± 0.013.
Turning to UUCUGAGUCACCUUCUCUGAGAGAUAUUGA, the “pre-steady-state target cleavage rate” value came out at 0.0507 ± 0.011.
With “AUCACUGUCACCUUCUCUGAGAGAUAUUGA [g6:g30:cont:t1A]”, the “pre-steady-state target cleavage rate” value was found to be 0.0731 ± 0.024.
Under UAGUGACAGACCAACUCUGAGAGAUUUUGA stands < 0.0001; under UAGACUGUCACCUUCUCUGAGAGAAAUACA, 0.0241 ± 0.0079; under UAGUGAGUCAGCUUGUCUGAGAGAUUAACA, 0.375 ± 0.023.
With UACACUGUCACCUUGUCAGAGAGAUUAACA the figure was 0.201 ± 0.03; with AUCACUGUCACCUUCUCUCUGAGAUUAAGA, 0.0105 ± 0.0043; with AUCUCUGUCACCUUCUCAGAGAGAUUAACA, 0.245 ± 0.024.
Under UAGUGUGUCACCUUCUCUGAGUGAAUAACA stands 0.0109 ± 0.0056.
With UAGACUGUCACCUUCUCUGAGAGAUUAUCA, the “pre-steady-state target cleavage rate” value was determined as 0.315 ± 0.035.
Under UAGACUGUCACCUUCUCUGAGUGAUAAACA stands 0.00863 ± 0.0026; under UUCACUGUCACCUUGUCUGUGAGAUUAACA, 0.127 ± 0.0089.
Under UAGUGUGUCACCUUGUCUGAGUGAUUAACA stands 0.0222 ± 0.0048.
Under UACUCUGACACCUUCUCUGAGAGAUUAACA stands 0.528 ± 0.028.
On to UAGACUGUCCCUUCUCUGAGAGAUUAACA, for which the “pre-steady-state target cleavage rate” value turned out to be 0.609 ± 0.052.
Under UAGUGAGUCACCUACUCUCAGAGAUUAACA stands 0.0407 ± 0.0094.
With AUCACUGUCACCUUCUCUGAGAGUUAAACA, the “pre-steady-state target cleavage rate” value amounted to 0.355 ± 0.069.
Under UAGUGAGUCACCUUGUCUGAGAGAUUAACA stands 0.136 ± 0.02.
With UAGUGUGUCACCAUCUCUGAGAGUUUAACA the figure was 0.299 ± 0.058.
With UAGUGUGUCACCUUGUCUGAGAGAAUAACA the figure was 0.00693 ± 0.0042; with UAGACUGUCACCUAUCUCUGAGAGAUUAACA, 0.609 ± 0.047; with UAGACUGUCACCUUCAGUGAGAGAUUAACA, 0.0785 ± 0.013.
For UUCUCUGUCACCUUCUCUGAGAGAUUAUCA, the “pre-steady-state target cleavage rate” value amounted to 0.238 ± 0.04.
With AUCACUGUCACCUUCUCUGAGAGUUAUUGA the figure was 0.328 ± 0.08; with UAGUGAGUGAGCUUCUCUGAGAGAUUAACA, 0.155 ± 0.014.
Under UAGUGACACACCUUCUCUGAGAGAUUAACCA stands 0.383 ± 0.032; under UAGUGAGUCACCUUCUGUGAGAGAUAUUGA, 0.00535 ± 0.0039.
For the sequence UAGUGACACACCCUCUCUGAGAGAUUAACA, the “pre-steady-state target cleavage rate” value is 0.502 ± 0.033.
With UAGUGACAGACCUUCUCUGAGAGAUUAGCA the figure was 0.0403 ± 0.0087.
With UUCAGUGUCACCUUCUCUGAGAGAUAUUGA the figure was 0.0663 ± 0.021; with UAGUGACAGUCCUUCACUGAGAGAUAAACA, 0.0071 ± 0.0041; with UAGUGACUCACCUUCGCUGAGAGAUUAACA, 0.0979 ± 0.016.
Regarding UAGUGUGUCACCUUCUCUGAGAGAUUAGACA, the “pre-steady-state target cleavage rate” value was found to be 0.0803 ± 0.017.
Under UAGUGAGUCACCUUCUCUGAGAGAUUAUCA stands 0.272 ± 0.035; under UAGUGUGUGUCCUUCUCUGAGAGAUUAACA, 0.297 ± 0.023.
As for UAGUGACUCACCUUCUGAGAGAGAUUAAGA, the “pre-steady-state target cleavage rate” value was 0.00445 ± 0.0032.
Consider UAGUCUGUCAGCUUCUCUGAGUGAUUAACA, for which the “pre-steady-state target cleavage rate” value was determined as 0.0153 ± 0.002.
With UUCACUGUCACCUUCUACUGAGAGAUUAACA, the “pre-steady-state target cleavage rate” value is 0.155 ± 0.047.
Take UAGUGUGUCACGUACUCUGAGAGAUUAACA: the “pre-steady-state target cleavage rate” value came to 0.106 ± 0.012.
Under UAGUGAGUCACCUUCAGUGAGAGAUUAUGA stands 0.00574 ± 0.0046.
Consider AUCACUGUCAGCUUCUCUGAGAGAAUAACA, for which the “pre-steady-state target cleavage rate” value was 0.3 ± 0.052.
With UAGUGACACACCAUCUCUGUGAGAUUAACA the figure was 0.0356 ± 0.0058; with UUCAUUGUCACCUUCUCUGAGAGAUUAACA, 0.615 ± 0.033; with UAGUGACUCAUCUUCUCUGAGAGAUUAACA, 0.652 ± 0.035.
Under UUCACUGUCACCUACUCAGAGAGAUUAACA stands 0.145 ± 0.015; under UACACUGUUACCUUCUCUGAGAGAUUAACA, 0.441 ± 0.024.
In the case of AUCACAUGUCACCUUCUCUGAGAGAUUAACA, the “pre-steady-state target cleavage rate” value turned out to be 0.467 ± 0.027.
As for AUCACUGUCUCCUUCUGUGAGAGAUUAACA, the “pre-steady-state target cleavage rate” value was 0.642 ± 0.033.
On to UAGUGACACACCUUCUCUCAGAGAUUAAGA, for which the “pre-steady-state target cleavage rate” value was 0.0126 ± 0.0058.
With UUCACUGUCACCUUCUCAGAGAGUUUAACA the figure was 0.365 ± 0.067.
On to UACACUGUCACCUACUCUGAGAGAUUUUGA, for which the “pre-steady-state target cleavage rate” value is 0.0418 ± 0.012.
With UACAGUGUGACCUUCUCUGAGAGAUUAACA the figure was 0.496 ± 0.026; with UUCACUGUCACGUUGUCUGAGAGAUUAACA, 0.285 ± 0.015; with UAGACUGUCACCUUCACUGUGAGAUUAACA, 0.169 ± 0.012.
As for UUCAGUGUCACCUUCUCUGAGUGAUUAACA, the “pre-steady-state target cleavage rate” value was 0.0456 ± 0.008.
As for UAGUGACAGUGGAUCUCUGAGAGUUUAUCA, the “pre-steady-state target cleavage rate” value was < 0.0001.
With UAGACUGUCACCUUCUCUGAGAGACUAACA the figure was 0.349 ± 0.029; with UACACUGUCACCUUCUCUGAGCAGAUUAACA, 0.00798 ± 0.004.
On to UACACUGUCACCUUCUCUGAGAGAAAUAGA, for which the “pre-steady-state target cleavage rate” value was 0.0252 ± 0.0085.
Under AUCACAGUCACCUUCUGUGAGAGAUUAACA stands 0.552 ± 0.034; under UAGUGACACACCUUCACUGUGAGAUUAACA, 0.0688 ± 0.012; under UAGUCUGUCACCUACUCUGACAGAUUAACA, 0.061 ± 0.013.

For the origin of these results see the supplement of paper PMC10338343.
